Results as given in PMC3739749.
No constants are given. Whether binding was seen depends on the method and setting. Some results given as binding are weak or reduced against the parent protein; the word gives no strength.

By UniProt entry, the sequences of proteins in these tests, tags left out.
UniProt O49839: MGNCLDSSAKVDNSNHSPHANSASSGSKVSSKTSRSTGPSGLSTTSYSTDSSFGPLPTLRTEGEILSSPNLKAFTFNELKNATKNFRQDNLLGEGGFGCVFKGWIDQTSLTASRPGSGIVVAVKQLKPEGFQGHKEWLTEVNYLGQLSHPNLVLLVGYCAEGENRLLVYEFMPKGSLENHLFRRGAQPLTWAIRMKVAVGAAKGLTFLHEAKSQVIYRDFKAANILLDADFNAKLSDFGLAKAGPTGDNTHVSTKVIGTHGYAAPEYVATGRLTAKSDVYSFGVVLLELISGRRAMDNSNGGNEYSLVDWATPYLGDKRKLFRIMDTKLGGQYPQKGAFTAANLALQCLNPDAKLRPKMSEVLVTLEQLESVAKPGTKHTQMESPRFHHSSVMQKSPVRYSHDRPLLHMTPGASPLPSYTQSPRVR
UniProt Q9SY91: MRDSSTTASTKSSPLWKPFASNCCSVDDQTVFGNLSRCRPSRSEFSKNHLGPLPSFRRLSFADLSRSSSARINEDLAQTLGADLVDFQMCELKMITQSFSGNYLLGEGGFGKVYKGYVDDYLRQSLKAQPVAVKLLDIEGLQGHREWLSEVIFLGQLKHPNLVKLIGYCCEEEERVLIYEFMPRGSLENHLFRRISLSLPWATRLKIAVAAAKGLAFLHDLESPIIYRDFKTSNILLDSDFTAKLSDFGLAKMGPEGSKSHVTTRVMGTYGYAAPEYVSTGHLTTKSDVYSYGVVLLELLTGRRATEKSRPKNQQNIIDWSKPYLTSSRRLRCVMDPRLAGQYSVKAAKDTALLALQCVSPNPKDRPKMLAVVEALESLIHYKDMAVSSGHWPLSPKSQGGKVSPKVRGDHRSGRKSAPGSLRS

Biological target: T1, wild-type XopAC (GAL4 bait, pGBKT7-xopAC) (Xanthomonas campestris pv. campestris strain 8004) (UniProt Q4UWF4)
T1 sequence: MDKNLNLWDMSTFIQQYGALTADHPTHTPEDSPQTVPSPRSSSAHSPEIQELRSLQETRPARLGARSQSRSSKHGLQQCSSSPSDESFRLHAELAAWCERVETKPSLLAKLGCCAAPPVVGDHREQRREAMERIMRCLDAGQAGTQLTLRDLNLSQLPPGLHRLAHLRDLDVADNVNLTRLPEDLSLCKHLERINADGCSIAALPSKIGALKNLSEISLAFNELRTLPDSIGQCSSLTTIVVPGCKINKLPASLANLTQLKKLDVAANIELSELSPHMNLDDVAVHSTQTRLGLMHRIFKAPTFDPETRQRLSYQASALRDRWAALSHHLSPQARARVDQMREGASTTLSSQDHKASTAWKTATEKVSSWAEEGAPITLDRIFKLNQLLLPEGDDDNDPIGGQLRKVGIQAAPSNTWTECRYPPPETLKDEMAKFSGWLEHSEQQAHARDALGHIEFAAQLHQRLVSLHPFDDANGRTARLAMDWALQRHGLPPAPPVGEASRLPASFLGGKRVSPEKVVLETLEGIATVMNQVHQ
Assay: two-hybrid; GAL4 system (Clontech), pairwise: XopAC variants as bait (pGBKT7-GW), RLCK as prey (pGADT7), S. cerevisiae AH109; ten-fold serial dilutions spotted on -WL, -WLH and -WLHA, pictures after 4 days; at least 3 clones

central kinase domain of RIPK (residues 87-367) (GAL4 prey, pGADT7) (from UniProt Q9ZUF4 87-367) (domain or fragment)
binding: no binding

full-length PBL2 (GAL4 prey, pGADT7) (from UniProt O49839 1-426)
binding: no binding

full-length PIX1 (GAL4 prey, pGADT7) (from UniProt Q9SY91 1-424)
binding: binds

B1: full-length PIX7 (GAL4 prey, pGADT7) (protein, UniProt Q9LFP7 1-493)
chain: MGLDAVKAKGNWKSEKPKETENKNHKKKNGDDNKSRNEEEEEGEASGCWVKFRFMIGCIPSKSDLDASSSSIYGSNCTVTTMESKSANEKSNDQPVGQVSSTTTTSNAESSSSTPVISEELNISSHLRKFTFNDLKLSTRNFRPESLLGEGGFGCVFKGWIEENGTAPVKPGTGLTVAVKTLNPDGLQGHKEWLAEINFLGNLLHPNLVKLVGYCIEDDQRLLVYEFMPRGSLENHLFRRSLPLPWSIRMKIALGAAKGLSFLHEEALKPVIYRDFKTSNILLDADYNAKLSDFGLAKDAPDEGKTHVSTRVMGTYGYAAPEYVMTGHLTSKSDVYSFGVVLLEMLTGRRSMDKNRPNGEHNLVEWARPHLLDKRRFYRLLDPRLEGHFSIKGAQKVTQLAAQCLSRDPKIRPKMSDVVEALKPLPHLKDMASSSYYFQTMQAERLKNGSGRSQGFGSRNGQHQPVFRTLSSPHGSSPYRHQIPSPKPKGATT
binding: binds

B2: full-length PIX8-RIPK (GAL4 prey, pGADT7) (protein, UniProt Q9ZUF4 1-462)
chain: MAVKKKVSWRSLIVGCLGDPETLMASSKKPKRKNDVIKKQSSFQRLSILDMSNPSSNTLSEDLSISLAGSDLHVFTLAELKVITQSFSSTNFLGEGGFGPVHKGFIDDKLRPGLKAQPVAVKLLDLEGLQGHREWLTEVMFLGQLKHKNLVKLIGYCCEEEHRTLVYEFMPRGSLENQLFRRYSASLPWSTRMKIAHGAATGLQFLHEAENPVIYRDFKASNILLDSDYTAKLSDFGLAKDGPEGDDTHVSTRVMGTQGYAAPEYIMTGHLTARSDVYSFGVVLLELLTGRRSVDKKRSSREQNLVDWARPMLNDPRKLSRIMDPRLEGQYSETGARKAATLAYQCLSHRPKNRPCMSAVVSILNDLKDYNDIPMGTFTYTVPNTPDNKEDDGRVGNKPRKSSHHHHHQQQQSNHPRSSPSPTTKSPSPTAKSPRNSTENHRRTLRNGVNSPLRSEAGGERY
binding: no binding
